Molecules are shown by their SMILES. About 6,900 (2%) of roughly 340,000 compounds were called active. No stated cut-off is given here; in the data, active means inhibition above about 30%; inactive means below that, where a call was filed. Only a part is listed here, and it is no random draw. The source gives no active or inactive call for entries shown without one.

The term inhibition denotes the change of the read-out against control, counted positive when it falls.

Chain of UniProt P14416 (P14416 whole entry, looked up): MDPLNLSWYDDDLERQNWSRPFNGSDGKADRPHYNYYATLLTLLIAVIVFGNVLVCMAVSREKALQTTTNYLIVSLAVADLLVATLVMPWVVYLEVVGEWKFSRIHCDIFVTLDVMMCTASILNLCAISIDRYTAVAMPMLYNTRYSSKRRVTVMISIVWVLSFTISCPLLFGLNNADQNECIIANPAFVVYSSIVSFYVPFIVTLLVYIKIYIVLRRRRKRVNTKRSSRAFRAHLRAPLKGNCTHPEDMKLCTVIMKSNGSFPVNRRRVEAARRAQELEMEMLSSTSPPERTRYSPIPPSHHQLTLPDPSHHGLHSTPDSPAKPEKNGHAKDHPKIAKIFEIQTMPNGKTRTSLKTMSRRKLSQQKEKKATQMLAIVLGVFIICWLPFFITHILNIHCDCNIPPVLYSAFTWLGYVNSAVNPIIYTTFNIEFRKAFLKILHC

The target of the experiment is D(2) dopamine receptor (Homo sapiens) (UniProt P14416). The experiment in a line: HTS Assay for Allosteric Antagonists of the Human D2 Dopamine Receptor: Primary Screen for Antagonists. Further: 0% is about no effect. The following applies: HEK293 TREx D2 cells, calcium flux, dopamine EC80; at 10 µM; stronger effect = higher value. The essentials:
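Measurement of antagonist activity uses fluorescent calcium dye in inducible HEK293 T-REx D2 cells: 10 s baseline, compound addition with 180 s read, EC80 dopamine addition with a further 180 s read.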
Background: A change in cytosolic calcium serves as a functional read-out for many receptors and channels.
Turning to `CCCN(CCC)S(=O)(=O)c1ccc2c(c1)N(CC(=O)NC(C)c1ccccc1)C(=O)CS2` (centres undefined), the inhibition was -12.1%.

In the case of `CCOc1ccc(NC(=O)c2oc3ccccc3c2NC(=O)c2c(F)cccc2F)cc1`, the inhibition was -7.24%.

For `Cc1ccc2nc(CNC(=O)c3ccccc3)[nH]c2c1`, the inhibition was -7.22%.

With `Cc1cccc(-c2noc(CSc3nc(-c4ccc(F)cc4)cc(=O)[nH]3)n2)c1`, the inhibition worked out at 7.52%.

As for `COc1ccc(CCNC(=O)C(=O)NCC(c2ccc3c(c2)OCO3)N2CCOCC2)cc1OC` (centres undefined), the inhibition was 8.39%.

For `Cc1cccn2c(=O)c(C(=O)NCCc3ccccc3)c(O)nc12`, the inhibition came to 11.6%.

`O=C(Nc1c(C(=O)N2CCN(c3ccccc3)CC2)oc2ccccc12)c1ccco1`: the inhibition came to 23.2%.

Turning to `CC(C)C(=O)NCC(c1ccc2c(c1)OCO2)N1CCN(c2ccccc2)CC1` (centres undefined), the inhibition was -15.4%.

For the molecule `Cc1c(C(=O)NCCc2ccc(Cl)cc2)sc2nc3n(c(=O)c12)CCCC3`, the inhibition is -18.6%.

For the molecule `O=C(Nc1ccc(F)cc1)C1(S(=O)(=O)c2ccc(Cl)cc2)CC1`, the inhibition is active: 36.9%.

As to `Cc1ccccc1CN1c2ccccc2-c2nc(SCC(=O)NCc3ccccc3)ncc2S1(=O)=O`, the inhibition is 3.34%.

Regarding `CCC(C)c1ccc(S(=O)(=O)N2CCN(CC(O)COCC3CCCO3)CC2)cc1` (centres undefined), the inhibition is active: 33.2%.

For `CCOCCCN(Cc1ccco1)S(=O)(=O)c1cc2c(cc1C)NC(=O)CO2`, the inhibition was -0.535%.

Consider `COc1ccc(-n2ncc(C(=O)Nc3cccc(C(F)(F)F)c3)c2C2CCN(C(=O)OC(C)(C)C)CC2)cc1`, for which the inhibition is -1.2%.

On to `OC(CNCc1ccc(Cl)cc1)COc1ccccc1` (centres undefined), for which the inhibition is active: 49%.

On to `Cc1ccc(C2=Nc3ccccc3N(CC(=O)NCc3ccccc3Cl)C(=O)C2)cc1C`, for which the inhibition was found to be 8.24%.

On to `COc1ccc(N2Cc3cccc(C(=O)Nc4ccc(F)cc4)c3C2=O)cc1`, for which the inhibition was 4.85%.

With `COc1ccc(C)cc1NS(=O)(=O)c1cc2c3c(c1)CC(=O)N3CCC2`, the inhibition was determined as 20.4%.

As to `COc1ccc(NC(=O)CSc2nc3nc(C)c(Cc4ccccc4Cl)c(C)n3n2)cc1OC`, the inhibition was found to be 10.6%.

On to `CCn1c(=N)c(C(=O)NC2CCCCC2)cc2c(=O)n3cc(C)ccc3nc21`, for which the inhibition is 3.07%.

As for `COc1ccc(-n2c(=O)c3ccccc3n(CC(=O)NCCc3ccc(OC)c(OC)c3)c2=O)cc1`, the inhibition amounted to 1.6%.

Turning to `Cc1ccccc1CCNC(=O)c1cc2cc(S(=O)(=O)N3CCCCC3)ccc2n1C`, the inhibition was -15.4%.

Take `COc1ccc(Cl)cc1NC(=O)CCCN1C(=O)C(c2ccccc2)Oc2cccnc21` (centres undefined): the inhibition is -7.44%.

As to `COc1ccc(NC(=O)c2cc3c(=O)n(Cc4cccnc4)ccc3nc2C)cc1OC`, the inhibition is 2.55%.

Regarding `COc1cc2c(cc1OC)C(COc1cc(C)cc(C)c1)N(C(=O)COc1ccccc1)CC2` (centres undefined), the inhibition is -15.4%.

Regarding `CCN(CC)c1ccc(NC(=O)c2sc3nc4c(cc3c2N)CN(C)CC4)cc1`, the inhibition was -4.58%.

For `CCn1c(C(=O)N2CCCC(C(=O)N3CCN(c4cc(C)ccc4C)CC3)C2)cc2sccc21` (centres undefined), the inhibition is -2.73%.

Regarding `CN(C(=O)CCS(=O)(=O)c1cc2c(cc1Cl)NC(=O)CO2)C1CCCCC1`, the inhibition is 11.2%.

For `Cc1ccc(NC(=O)C2CCC(N3C(=O)C4CCCCC4C3=O)CC2)cc1` (centres undefined), the inhibition was active: 42.8%.

Consider `Cc1nncn1-c1ccc(C(=O)Nc2cc(F)ccc2F)cc1`, for which the inhibition was -3.52%.

On to `CCCCN1CCCC1CNC(=O)c1cc(C#N)c2ccccc2c1OC` (centres undefined), for which the inhibition was active: 84.4%.

Take `Cc1ccc(CCNC(=O)CCS(=O)(=O)c2cc3c(cc2C)NC(=O)CO3)cc1`: the inhibition was active: 42.6%.

Take `O=C1CN(C(=O)c2ccc(S(=O)(=O)N3CCCC3)cc2)C(c2ccccc2)c2cc(Br)ccc2N1` (centres undefined): the inhibition worked out at 0.829%.

In the case of `CCOc1ccc(-c2nnc(SCC(=O)NCc3ccccc3)o2)cc1`, the inhibition was -3.5%.

As to `Cc1ccc(NC(=O)CN2CCSc3ccc(S(=O)(=O)N4CCCC4)cc32)cc1C`, the inhibition was -14.3%.

For the molecule `CC(C)(C)C(=O)NC1(C(F)(F)F)C(=O)Nc2c1c(=O)[nH]c(=O)n2-c1ccccc1` (centres undefined), the inhibition is -13.4%.

On to `Cc1nnc(N2CCC(C(=O)NCCc3ccccc3)CC2)c2nn(-c3ccc(Cl)cc3)c(C)c12`, for which the inhibition was 12.5%.

With `COc1cc(OC)c(NS(=O)(=O)c2cc(-c3cnc(C4CC4)o3)ccc2C)cc1Cl`, the inhibition is -12.4%.

As to `CCOc1ccc(-n2nc3cc(C)c(NC(=O)c4cc(OCC)c(OCC)c(OCC)c4)cc3n2)cc1`, the inhibition was -23.5%.

Regarding `Cc1cc2c(cc1S(=O)(=O)CCC(=O)NCCc1ccccc1)OCC(=O)N2`, the inhibition was -3.35%.

As to `CC(C)C(c1nnnn1Cc1ccc(F)cc1)N1CCN(C2CCCC2)CC1` (centres undefined), the inhibition was active: 55.9%.

Consider `CCC1CN(C(=O)Nc2ccc(C)c(F)c2)c2ccccc2S1` (centres undefined), for which the inhibition is -2.76%.

`COc1ccc(-c2cn3cccnc3n2)cc1NC(=O)c1cc(C)cc(C)c1`: the inhibition is -4.83%.

For the molecule `Cc1cc(Cl)ccc1OCC(=O)N(Cc1ccco1)Cc1ccco1`, the inhibition is -24.2%.

Consider `Cc1ccc(-n2ncc(C(=O)N3CCN(c4ccc(Cl)cc4)CC3)c2C2CCN(C(=O)OC(C)(C)C)CC2)c(C)c1`, for which the inhibition came to 10.4%.

Turning to `COc1ccc(-c2nnc(C3CCN(S(=O)(=O)c4ccc(C)c(C)c4)CC3)o2)cc1`, the inhibition was -5.82%.

Consider `COc1ccc(CCNC(=O)CCc2c(C)c3cc4c(C)coc4c(C)c3oc2=O)cc1OC`, for which the inhibition came out at 15.5%.

Consider `CC(O)CNc1nc2c(c(=O)n(Cc3ccc(Cl)cc3)c(=O)n2C)n1C` (centres undefined), for which the inhibition is -16.5%.

Consider `CCOC(=O)c1ccc(NC(=O)c2ccc(=O)n(Cc3cccc(C)c3)c2)cc1`, for which the inhibition is 9.76%.

For the molecule `CCOc1ccc(-c2cc(-c3nc(-c4ccc(OC)c(OC)c4)no3)[nH]n2)cc1`, the inhibition was -4.14%.

Consider `Cc1ccccc1CSc1ncc(CO)n1Cc1ccc(F)cc1`, for which the inhibition was determined as 5.28%.

Regarding `COc1ccc(Cc2nc3ccccc3n2Cc2ccccc2F)cc1`, the inhibition worked out at 10.7%.

As to `OC(COc1ccccc1Cl)CN1CCN(CC(O)COc2ccccc2Cl)CC1` (centres undefined), the inhibition is active: 70.2%.

In the case of `CCN(C(=O)Cn1cnc2sc(C)c(S(=O)(=O)N3CCN(c4ncccn4)CC3)c2c1=O)c1ccccc1F`, the inhibition amounted to 10.7%.

Regarding `COC(=O)Cn1c(CN2CCN(c3ccc(F)cc3)CC2)nc2c1c(=O)n(C)c(=O)n2C`, the inhibition was active: 30.4%.

On to `CCC(C)NC(=O)C1=CC(c2ccc3c(c2)OCO3)=NS(=O)(=O)N1C` (centres undefined), for which the inhibition came out at 14%.

With `COC(=O)c1cc(NC(=O)Cn2nc(-c3ccc(C)c(C)c3)ccc2=O)cc(C(=O)OC)c1`, the inhibition is 8.62%.

`CC(C)(C)c1ccc(C(=O)N2CCCCC2CCN2CCCCC2)cc1` (centres undefined): the inhibition is -25.6%.

`COc1cccc2c1Oc1ncccc1N(C(=O)CCC(=O)NCc1ccccc1Cl)C2`: the inhibition amounted to 8.16%.

Turning to `O=C(CN1C(=O)COc2ccc(S(=O)(=O)Nc3ccccc3)cc21)Nc1cccc(Cl)c1`, the inhibition stood at 7.94%.

In the case of `COC(=O)c1ccc(Cn2nnc3c(=O)[nH]c(C4CCCN(S(=O)(=O)c5cccc(Cl)c5)C4)nc32)cc1` (centres undefined), the inhibition was 8.77%.

Turning to `COc1ccc2c(c1)cc1c(=O)n(CC(=O)NCCCc3ccccc3)nc(C)n12`, the inhibition worked out at 4.82%.

Regarding `COc1cccc(CNCc2cccc(Br)c2)c1OC`, the inhibition was active: 35.7%.

With `O=C(Nc1ccc(Br)cc1F)N1CCC2(CC1)Oc1ccccc1C(=O)N2Cc1ccccc1F`, the inhibition came to 11.5%.

Consider `COc1ccc(N2CCN(c3nc4ccc(C)cc4n4nnnc34)CC2)cc1`, for which the inhibition amounted to 5.34%.

Take `COc1ccc2occ(CC(=O)Nc3ccc(S(=O)(=O)Nc4nc(C)cc(C)n4)cc3)c2c1`: the inhibition was -8.16%.

As to `COc1ccc(C2C(C(=O)Nc3ccc(C)cc3C)=C(C)Nc3nc4ccccc4n32)c(OC)c1` (centres undefined), the inhibition was found to be 3.13%.

With `O=C1CSC2(C(=O)N(Cc3ccccc3)c3ccccc32)N1c1ccc(Cl)cc1` (centres undefined), the inhibition was -2.53%.

Consider `CSc1cccc(NS(=O)(=O)c2cn(C)c(C)n2)c1`, for which the inhibition was -13.4%.

Regarding `Cn1cnc(S(=O)(=O)N2CCC(C(=O)N3CCN(c4ccccc4F)CC3)CC2)c1`, the inhibition was 11.3%.

Take `CCOc1ccc(NC(=O)c2cc(=O)c3ccc(C)c(C)c3o2)cc1`: the inhibition is -12%.

On to `Cc1cc(C)cc(NS(=O)(=O)c2ccc3[nH]cc(C(=O)NCc4ccccc4Cl)c(=O)c3c2)c1`, for which the inhibition came out at 4.53%.

For `Cc1ccc(-c2nc(Cn3c(=O)cc(-c4ccccc4)c4c(C)nn(C)c43)c(C)o2)cc1`, the inhibition stood at 21.8%.

Turning to `COc1cc(NC(=O)Cn2c(=O)n(Cc3ccco3)c(=O)c3oc4ccccc4c32)cc(OC)c1`, the inhibition was -2.13%.

`O=C(CSc1nnc(-c2ccc([N+](=O)[O-])cc2)o1)Nc1ccccc1`: the inhibition was -21.5%.

Take `CN(C)S(=O)(=O)c1cccc(C(=O)Nc2ccccc2)c1`: the inhibition is active: 47%.

Turning to `Cc1ccc(OCCn2nnc3sc4c(c3c2=O)CCC(C)C4)cc1` (centres undefined), the inhibition came out at 16.9%.

With `CN(C1CCCCC1)S(=O)(=O)c1ccc2c(c1)c(=O)c(C(=O)N1CCN(c3ccccc3F)CC1)cn2C`, the inhibition stood at 2.28%.

With `CCc1c(-c2ccccc2)nc2ccccc2c1C(=O)NCc1ccc(C)cc1`, the inhibition worked out at 20.2%.

`CCOc1ccc(C(=O)N2CCC(c3noc(-c4ccc(S(=O)(=O)N5CCCC5)cc4)n3)CC2)cc1`: the inhibition stood at 9.99%.

Turning to `CCC(=O)Nc1nnc(S(=O)(=O)N2CCc3ccccc32)s1`, the inhibition came out at 18.6%.

For `CCOC(=O)C1(CCOc2ccccc2)CCN(CCCn2cccn2)CC1`, the inhibition was active: 76.8%.

With `O=[N+]([O-])c1ccccc1/C=C/CN1CCCCC1`, the inhibition was active: 36.4%.

As for `COc1ccc(C2Nc3ccccc3C(=O)N2c2ccccc2)cc1CN1CCOCC1` (centres undefined), the inhibition was active: 30.1%.

On to `COC(=O)c1cc2occc2n1Cc1nc(-c2ccc(C)cc2)oc1C`, for which the inhibition is -7.1%.

Take `COc1ccc(NC(=O)CSc2nc(O)c(Cc3ccccc3)c(=O)[nH]2)cc1`: the inhibition was active: 52.6%.

As for `COc1cccc(OC)c1OCCCNC1CCCC1`, the inhibition is active: 47.7%.

With `Cc1c(NC(=O)c2cc(=O)c3cc(Cl)ccc3o2)c(=O)n(-c2ccccc2)n1C`, the inhibition was determined as 7.7%.

As for `Cc1cccc(-c2nc(Cn3c(SCc4cccc(C(F)(F)F)c4)nc4ccncc43)c(C)o2)c1`, the inhibition is -4.3%.

Regarding `COc1ccccc1C1CCN(Cc2c(C)[nH]c3ccccc23)CC1`, the inhibition was active: 56.2%.

On to `Fc1ccc2c(c1)NC(c1ccncc1)=NC(c1cccs1)=N2`, for which the inhibition is 5.19%.

Take `O=C(CCNS(=O)(=O)c1ccc2c(c1)CCN2C(=O)C1CC1)Nc1ccc(F)cc1F`: the inhibition is -6.82%.

Take `Cc1cccc(NC(=O)c2cc(S(=O)(=O)N3CCC4(CC3)OCCO4)ccc2F)c1`: the inhibition was -2.71%.

With `CCOC(=O)c1ccc(NC(=O)Cn2cc(C(=O)c3ccc(Cl)cc3)c(=O)c3ccc(C)nc32)cc1`, the inhibition is -13.6%.
